Measurements reported in article PMC11861601, “Multitarget mechanism of MYC inhibition by the bacterial lon protease in disease” (Scientific Reports, 2025).

Target: T1, Lon N-terminal domain peptide (aa 1-245) (E. coli, UniProt P0A9M0 1-245)
T1 construct: Lon protease, E. coli, UniProt P0A9M0, N-terminal domain, aa 1-245; also called NTD; NTD peptide; source: E. coli BL21 (DE3), purified (Strep-Tactin Sepharose)
Assay: SPR; Biacore X100; His-tagged ligand (~0.2 µM) captured on Ni-charged Sensor Chip NTA; Lon protein or domain injected at five dilutions; 25 °C, 30 µL/min; running buffer as printed 0.1 M HEPES, 1.5 M NaCl, 0.03 M EDTA, 0.5% v/v Surfactant P20; reference cell without nickel; 1:1 Langmuir fit
Conditions: both partners purified

B1: His-tagged MAX (natural protein)
chain: not shown
notes: MAX, human; source: bought: Novus Biologicals, Cat# NBP1-44497
- Kd: < 1000 nM
